Measured values reported in the RNAGym collection of RNA variant scans (doi:10.1073/pnas.2313332121).
Variants at the background level are over-represented here.

B1: TPR 5TU (parent)
chain: GGAUCUUCUCGAUCUAACAAAAAAGACAAAUCUGCCACAAAGCUUGAGAGCAUCUUCGGAUGCAGAGGCGGCAGCCUUCGGUGGCGCGAUAGCGCCAACGUUCUCAACUAUGACACGCAAAACGCGUGCUCCGUUGAAUGGAGUUUAUCAUG

Variants of: B1
Assay: polymerase ribozyme fitness, log enrichment relative to wild type (log ratio); higher = more active; in vitro selection for triplet polymerase activity
Outline: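 For each subunit of a heterodimeric triplet polymerase ribozyme, a mutant library was built by PCR and transcribed, then taken through a single in vitro selection round in triplicate. Selection involved annealing to a biotinylated primer, the partner subunit and triplets, incubation frozen at −7 °C, gel excision of extended constructs, capture on streptavidin beads and RT-PCR. Genotypes were retained after Illumina sequencing of inputs and outputs only with ≥10 input reads and ≥1 read in each output. Fitness is defined as the logarithm of a genotype's enrichment relative to wild-type enrichment, using inverse-variance-weighted averages across replicates, with the logarithm taken to base 2.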

Polymerase ribozyme fitness (log ratio), -3.99:
U6G U78G C93U A98G A142C

Polymerase ribozyme fitness (log ratio), -3.44:
C8U C85G

Polymerase ribozyme fitness (log ratio), -4.06:
C8G A30G G48A C69G G86A G143U

Polymerase ribozyme fitness (log ratio), -3.75:
C8U A17C A28G C35U C76A C96U U144G

Polymerase ribozyme fitness (log ratio), -3.87:
U7A G94C U111C U135A A138U

Polymerase ribozyme fitness (log ratio), -1.75:
U6G C93A

Polymerase ribozyme fitness (log ratio), -2.99:
C8U A12G A52G A98U

Polymerase ribozyme fitness (log ratio), -3.31:
U7A A17C A142C

Polymerase ribozyme fitness (log ratio), -1.5:
U6G U53C G92C U144C

Polymerase ribozyme fitness (log ratio), -4.07:
U7C A24U C96U A107G C125G U144C U151C

Polymerase ribozyme fitness (log ratio), -2.38:
U7G A16C

Polymerase ribozyme fitness (log ratio), -3.6:
U6G C87G

Polymerase ribozyme fitness (log ratio), -3.02:
U7G G50U

Polymerase ribozyme fitness (log ratio), -3.71:
U6G U55G G92A

Polymerase ribozyme fitness (log ratio), ≤ -4.2:
U7A U44A
C8A U56C A73G C87U A110G G133U A138G
U7A A19C A21G C95G A98G C125G A147U
U7A C14A A23C C75G C85U
C8G A24G A30G G70A G136C
U6G U15G A40G A49U C76A C79A G92U
U7C C18U U61C C69A C93A C114U
C8A U13G A47U C75G U77G G86A
U7C C10A G11C A47C U55G A60G C69U A91C G143C
C8A G34A A37G U61C
C8A U45A U53A G58U G59A A60U C93U C108U C116G C125G
C8G A40C C85G A113U
U7C A73G U82A G136C
U7A C32G U45A U55C C87U C93G G141U
C8A U13G G50C C76G C118A
U7A A19G C43G G83U G88U U90A A115C
C8A A21C U53A U56A G70U C93U G141C
C8G C54A C63G G92A C118A G128A G133U
C8U C51A G59U G84U
U6G C38U U45A G50C U55A G65U A73G C95A C108G
C8U C93U
C8G C75G U82C
U7C A39U A73C C93A C96U
U7G G74A C93U C125A
U7C C63A C69U C95G A107C U134G
U6G G48C C76A
U7G G94A G143C
U7A A16U A20G G48A C57A G58U A64G C87A G92U G126A C129A A137C
C8U C10G A64C G81A G84A
U7C G42A C85G U144C
U7C G62A G65A G67C C76A U90G C95A C99U U111G U146G
C8G A66C C75U C103G U127G A150G
C8G A21C G46A A66U G80U C131U
U6G C85A C87G A98U A106C U148A
C8U A91G C96U A142G U145A
C8A A39U A91U A137C G152U
C8A U55A U56A C87A A97C G100U
U7A A49C G68A C96G
C8G A19U A21C C27U G88A C93U U104G G140A
C8G A40U A41C C85U C103A C129A C131U
C8U G11U U15C A49C A60U C63U C69U A91G C132G
C8G G74C A97U
U7G U56A G81C G128C U139C
U7A G59A A60U G68A U82G G86A U101C
U6G C8G C43G C85U A97U G126A G143C
C8A A22C G42A C93U
U7A C35A U56A C79U G83U U145A
U7A U53A C69G C87G
U7G A22C C85G G86C C105U
U6G C27A C32G C69G C85A G126U U127G G143C G152U
C8U A21U G25A A60C C93U C125A
U7G G11U A16G A24C U31G G34U A98G G117C
C8A G25U G46C G48C U127G C132A
U6G A52G U56C G62C C87U C96U
C8A A40G A60U C93U G136A
U6G C10G G58U G59C U61A C63A C99U
C8U A21C G42A A52C G92U U102G
C8U A52G G58C C76G C93A C108G G136U
C8G C27A C57G A60G G71U A97U A98G C105A A138G
C8U C14U A26G G68A G86C U145G
U7G C63A C96G
U6G A40U G84A U102C A106G G128C
U7C G46C U56A U77C G81A G86U G100A G133U
U6G C10G A49C U53A U55A U109G A115G G126C
C8G C43U G50U C79G C93A C116G U134G A138C U146G
U6G U53A G59C U90C C131U
C8A C10G U53A C57G C75G G83C U102A A121U U144A U145C
U6G C35A C38U G48A C79G A91U A98G C103A C125U A142G G143A
C8A C10U A22C G88U C95G C108A A119C U145G
U7A G70C U77C U90G A91U C103A A106G A137U
U7C A16U A49G G92C
U7G U33C A89U C93U
C8A U9A G59A A66C C79A C87A C99U C105U
U7A A41C G42A G59C G67C C96G G140C G143A
U7G C14U C32G A73G U104A G140U
U7A G42A G58C A89G G124A G143C
C8A A89U A91G C105G A138G
U6G A52G U90A C99U U134C
C8G C93G
C8A C10G C14G C18G C32U A47C A52C U82C C85G G133U U148C
U7C A19G A52C G71U C76U C93U C99G C105A U109G C132U
C8U A28U G58A G74C U127G G133C A142U C149G
C8A G71U G83C A91G
C8G A49U A91G
C8A U44A C51A A66G C85U U130G
U7G C10G A20G A91C U104G C105G A138U
C8G C35U A64C A89U A91U U101G A142C
C8A A19C A24C C27U G74A G84C A121G
U6G A47C U55A G68A G81C C93A C96G U101C U109A
C8A A60U C93A C105A G112U
C8A C18G U45G C54G
C8G A30C C57U C85U C87U U127G C129G
C8G G11U A73G G86A C99A A142G U148G
C8U C35U G50C U55A G58C G59C A60C A106U G141A
C8A A20U A29C G92U C95G C118A
C8A A21G C54U C85G G100A
C8G C54U U55A C93G A107C C116U
U6G U44G A47U U53C A64C C103A
C8A U15A G34A A49G A60G C87A A98G U145G
C8G A24G U33G G59A G71A G74A U144C
C8A C14U A47C G50C U55A C85G U90G U144G
C8U A30U C36G G83C A91G G143C
U7A A17U A23U A37C U55A C93U C95U
U7A C10G G58C C95U C108A C116U C123U U134G U135A
U7A C8A U13G A26C A41C C85G U90G U144G
U7C A20C A89G C96A U111C C118U
U7C A23C
U7G A28U A40C A138G
C8G C75G G83A A91G G92A C93G C96A U111G C132U G141A A147U
C8A U9A
C8U A39C C57U U130G
C8A G67C G80C A91G
C8A G11C U15G C35G C85A G94U A150C
U7A A28C G34C C38U A41U C76U C87U
C8G A28G C87U A150G
C8G C14A C38A A49C G86A A91C
C8U C57U A91G
C8A A17G U78G G94A G133A U134A
U6G U53A A64U C85A G124A
C8U A37U A40G A91U A98U
C8A A16G A24U A29U A47G C57A U61A C85U G141C
U7C C72G C87A A91G A106U A110C C116U A142C
C8A C38U U45A C57G U78G C85A
C8A A24C A64G C85G G143U
C8A A29C G70A G81C G126U G141C
U7A G50C A52C C95U A142U G152A
C8A A39U A52G U53A G81U G84U C99G A119U A120U G124U
C8G G48C G80U G84U C125U G141U
U6G C75G A142U
U7G C14G C43A G92A C96A A138U A142C U146A A147C
U6G U9G A28U U56A G59A A142C U146G
U7C A19C A21G G46U A47G U77G G92A A121U G141U U146C
U7G A73G G83A A107C G117U
U7A U9C A19C A21U G59U C95G U104A G128U C149U
U7G A30C C35U C54G A91U C93A C118A C129A U148G
U7G G11A C18A A37G G50A C85U G112U
C8G U55G C72U G84U G136A
C8G U9A A30C U102C
C8U A16G A26U G94U C96U C123U U134C
U7A A52G G58C G84A G100U A106G C131U
U6G A37U U44A U45A C57U
C8A A29U U33A C51A A64C G65A C69U G83A G94U A138C
C8G C14G U33G U56A G83U C87U U102G A119G
C8A C72U G81U G84C G88C C99U
C8G A24C G84C G86A C103A G128U
C8A A22U C79G G81U C95U A107U C108U
U6G A89U A138U
U6G G48U G58A C76G U82C C93U A122C A138G A142G
C8G U31G C38U A47C A49G U55A G86A

Polymerase ribozyme fitness (log ratio), -3.43:
U7G C85A

Polymerase ribozyme fitness (log ratio), -4.13:
U7A A26G C75G C93A

Polymerase ribozyme fitness (log ratio), -2.63:
C8U C96G

Polymerase ribozyme fitness (log ratio), -1.09:
U6G C85A
